# Out of some 310,000 compounds screened, about 11,000 (3.5%) were called active. This list was built around the results that the source calls inconclusive (neither active nor inactive); the mix of calls is not that of the screen. Calls come from the whole dose curve; as a rule, active = well fitted inhibition curve with a large enough effect; inconclusive = small, poorly fitted or top-dose-only effect, or effect the other way; inactive = flat fitted curve, though single readings scatter. Potencies of inconclusive entries are left out as doubtful fits.
# Assay: VP16 counterscreen qHTS for inhibitors of ROR gamma transcriptional activity;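 note: Gal4-VP16 expression switched on by copper sulfate through the metallothionein promoter; nearly all actives have a fitted effect of over 50% in size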
# Settings: Drosophila S2 Gal4-VP16 UAS-luciferase, luminescence, 20 h; activity, negative = inhibition: at 53.6 µM (top of the series)
# % is set by controls: 0 for no effect and ±100 for the full control effect; potency is the fitted concentration of half-maximal effect; tags give direction and shape of the fitted curve.
SMILES,Potency,"activity, negative = inhibition"
CCCC(=O)NC(=S)Nc1cccc(Cl)c1N1CCCC1,active: 7.08 µM,–
CCN(CC)S(=O)(=O)c1ccc(N2CCCC2)c(NS(=O)(=O)c2ccc([N+](=O)[O-])cc2)c1,–,inactive: -3.1%
COC(=O)Cn1c(CN2CCN(c3ccc(F)cc3)CC2)nc2c1c(=O)n(C)c(=O)n2C,active: 2.82 µM,–
O=C(C=C1SCCS1)/C=C/c1ccco1,"inconclusive [inhibitor, full curve, poor fit]",–
CCOCCCNC(=S)NNC(=O)CCn1nc(C)c(Br)c1C,active: 3.16 µM,–
Cc1cc(C(F)F)n2nc(C(=O)Nc3cccnc3Cl)nc2n1,"inconclusive [inhibitor, single point]",–
Cc1ccc(NC(=O)c2nc[nH]c2C(=O)N[C@@H](C)C(=O)OC(C)(C)C)cc1,"inconclusive [inhibitor, single point]",–
Cc1cccc(-c2nsc(SCC(=O)N3CCCC3)n2)c1,"inconclusive [inhibitor, partial curve]",–
CC(OC(=O)c1ccc(Cl)c(S(=O)(=O)N2CCCC2)c1)C(=O)NC1CCCCC1C (configuration not stated),–,inactive: -28.3%
COc1ccc(NC(=S)N/C(=N/CS(=O)(=O)c2ccccc2)c2ccccc2)cc1,"inconclusive [activator, single point]",–
OCC1CCCN(C(=S)Nc2ccc(Nc3ccccc3)cc2)C1 (configuration not stated),active: 7.94 µM,–
N#Cc1c(NC(=O)CSc2ncn[nH]2)sc2c1CCCC2,active: 0.112 µM,–
CCC(=O)N1CCc2cc(S(=O)(=O)Nc3ccc4c(c3)OCCO4)ccc21,"inconclusive [inhibitor, single point]",–
CN(C)C(=O)c1ccc2c(c1[N+](=O)[O-])C(=O)c1ccccc1C2=O,active: 3.55 µM,–
c1ccc2c(c1)nnn1c3ccccc3nc21,"inconclusive [inhibitor, single point]",–
CCOC(=O)C1=C(C)NC(=S)NC1c1ccc(OCC(=O)N2CCCCC2)cc1 (configuration not stated),–,inactive: 1.98%
Cc1ccc(-n2ncc3c(NNC(=O)c4ccco4)ncnc32)cc1Cl,active: 3.98 µM,–
COc1ccc(S(=O)(=O)N(C)CC(=O)Nc2c(F)cccc2F)cc1,"inconclusive [inhibitor, single point]",–
COc1ccccc1NS(=O)(=O)c1cc(NC(C)=O)ccc1N1CCCCC1,–,inactive: -0.56%
COc1ccc(NS(=O)(=O)c2cccc(NC(=O)C3=NN(c4ccccc4)C(=O)CC3)c2)cc1,active: 11.2 µM,–
CCC(OC(=O)c1ccco1)C(=O)NC1CCCC1 (configuration not stated),–,inactive: -0.367%
COc1ccc(C(=O)N2CCC3(CCN(Cc4ccccc4)CC3)CC2)cc1,–,inactive: -3.25%

# From PubChem BioAssay AID2546 (National Center for Advancing Translational Sciences (NCATS), 2010)
